Our source for the viability index values is the supplement of paper PMC4723716.

± gives the uncertainty stated by the source. Over roughly 9,900 compounds, “viability index relative to DMSO control” has its median near 1; the lowest 2% begin near 0.85. Some of the results follow.

The subject of the assay is Plasmodium falciparum NF54 stage V gametocytes. As to the kind of experiment: viability index relative to DMSO control (fraction); higher = less gametocyte killing. Conditions: 2.5 µM, library set: Broad Institute DOS, incubation time: 72 h. Summed up: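 P. falciparum NF54 stage V gametocytes (serum-free medium, 0.75% gametocytemia, 1.25% hematocrit) were exposed to compound at 2.5 µM for 72 hr at 37°C under low oxygen, then stained with MitoTracker Red CMXRos and saponin for one to two hours. Red particles of 20–70 µm2 in one field per well were counted, and the viability index is that count scaled to the plate mean of solvent-only wells.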
`COc1ccc(S(=O)(=O)Nc2ccc3c(c2)C(=O)N([C@@H](C)CO)C[C@H](C)[C@@H](CN(C)Cc2ccc(C(F)(F)F)cc2)OCCCC[C@H](C)O3)cc1` came in with a viability index of 0.917 ± 0.11. `CO[C@H]1CN(C)C(=O)c2ccc(NC(=O)c3ccno3)cc2OC[C@@H](C)N(S(C)(=O)=O)C[C@@H]1C`: the viability index worked out at 1.089 ± 0.0036.

In turn, `C[C@H]1CN([C@@H](C)CO)C(=O)c2ccccc2-c2ccccc2CO[C@H]1CN(C)Cc1ccc(Oc2ccccc2)cc1` yielded a viability index of 0.867 ± 0.082. `Cc1ccc(S(=O)(=O)Nc2ccc3c(c2)CC(=O)N([C@@H](C)CO)C[C@H](C)[C@H](CN(C)S(=O)(=O)c2ccccc2)O3)cc1` yielded a viability index of 0.912 ± 0.092.

Molecule `O=C(Nc1ccc2c(c1)[C@@H]1C[C@H](CC(=O)N3CCCCC3)O[C@H](CO)[C@@H]1O2)NC1CCCCC1` yielded a viability index of 1.05 ± 0.014. Molecule `CO[C@@H]1CN(C)C(=O)c2ccc(NC(=O)NC(C)C)cc2OC[C@@H](C)N(Cc2ccc(-c3ccccn3)cc2)C[C@H]1C` came in with a viability index of 1.03 ± 0.023. To `C/C=C/c1ccc2c(c1)[C@H]1[C@H](CCN1C(=O)c1ccc3c(c1)OCO3)[C@H](CO)N2` belongs 1.08 ± 0.089; to `COCC(=O)Nc1ccc2c(c1)C(=O)N(C)C[C@H](OC)[C@H](C)CN(C(=O)c1ccncc1)[C@H](C)CO2`, 1.08 ± 0.062; to `CC(=O)N1[C@H](CO)[C@@H](c2ccccc2)[C@@H]1CN(CC1CCC1)C(=O)CN(C)C`, 1.03 ± 0.034. To `CNC[C@H]1OCCCC[C@@H](C)Oc2ccc(NC(=O)Nc3ccc(OC)cc3)cc2C(=O)N([C@H](C)CO)C[C@@H]1C` belongs 1.06 ± 0.022; to `COc1ccc2c3c([nH]c2c1)[C@H](CO)N(C[C@]31CCN(C)CC1)S(=O)(=O)c1ccccc1`, 1.06 ± 0.078; to `CO[C@@H]1CC[C@@H]2CCN(C)C(=O)[C@@H](C)CN(C)C(=O)c3cc(C#N)ccc3OC[C@@H]1O2`, 0.92 ± 0.11. Consider `CCCNC(=O)c1cc2c(c(-c3cccc(-c4ccc(F)cc4)c3)n1)[C@H](CCO)N([S@@](=O)C(C)(C)C)C2`, for which the viability index came to 1.001 ± 0.0012. The molecule `CN1CCN(C(=O)C[C@@H]2CC[C@@H]3[C@@H](COc4ccc(NC(=O)C5CCOCC5)cc4C(=O)N3C)O2)CC1` gave a viability index of 1.12 ± 0.043. `Cc1cccc(S(=O)(=O)N2CC[C@@H]3[C@H](CO)Nc4ccc(-c5ccccc5F)cc4[C@@H]32)c1`: the viability index was found to be 1.06 ± 0.03. For the molecule `CCCNC(=O)N1C[C@@]2(C1)CN([C@@H](CO)c1[nH]c3cc(OC)ccc3c21)C(=O)Nc1ccc(F)cc1`, the viability index turned out to be 0.986 ± 0.011. The result for `C[C@H]1CCCCO[C@H](CN(C)Cc2ccc(C(F)(F)F)cc2)[C@@H](C)CN([C@@H](C)CO)C(=O)c2cc(NC(=O)Nc3cccc4ccccc34)ccc2O1` reads 1.01 ± 0.059; that for `COc1ccc2c3c([nH]c2c1)[C@H](CO)N(C[C@]31CN(CC2CC2)C1)C(=O)CN(C)C`, 1.07 ± 0.032. The molecule `O=C1CNC[C@H]2[C@H](c3ccc(-c4ccccc4F)cc3)[C@H](CO)N12` came in with a viability index of 1.03 ± 0.11. Molecule `CCS(=O)(=O)NCC[C@H]1CC[C@H](NS(=O)(=O)c2ccccc2C)[C@H](CO)O1` came in with a viability index of 0.89 ± 0.031.

As to `C/C=C/c1ccccc1[C@H]1[C@@H](CO)N(C(=O)Nc2ccc(OC)cc2)[C@H]1C#N`, the viability index was 1.04 ± 0.039. In turn, `CCCNC(=O)N(C)C[C@@H]1Oc2cc(C#C[C@H](C)O)ccc2S(=O)(=O)N([C@@H](C)CO)C[C@H]1C` gave a viability index of 1.05 ± 0.043.

`COCC(=O)N1CC(=O)N2[C@H](C1)[C@H](c1ccc(-c3ccccc3F)cc1)[C@@H]2CO` gave a viability index of 1.02 ± 0.013. Consider `O=C(C[C@H]1CC[C@@H]2[C@H](COC[C@@H](O)CN2CCC(F)(F)F)O1)NCC1CC1`, for which the viability index turned out to be 1.02 ± 0.1. As to `C[C@H]1CN([C@@H](C)CO)C(=O)c2cc(NC(=O)CCCN(C)C)ccc2O[C@@H]1CN(C)Cc1ccc(Cl)c(Cl)c1`, the viability index worked out at 1.01 ± 0.12. To `CN(C)C(=O)C[C@H]1C[C@@H]2c3cc(NC(=O)c4cccnc4)ccc3O[C@@H]2[C@@H](CO)O1` belongs 1.07 ± 0.039. To `Cc1cc(C(=O)Nc2ccc3c(c2)C(=O)N(C)[C@@H]2CC[C@H](CC(=O)NCc4ccc(-c5ccccc5)cc4)O[C@@H]2CO3)no1` belongs 1.09 ± 0.15; to `C/C=C/c1ccc([C@@H]2[C@H](CO)N3C(=O)CN(S(=O)(=O)c4ccccc4)C[C@@H]23)cc1`, 0.977 ± 0.02.

On to `COCC#Cc1ccc([C@@H]2[C@H](CO)N3C(=O)CN(C(=O)c4ccncc4)C[C@@H]23)cc1`, for which the viability index amounted to 1.11 ± 0.041. The result for `C[C@@H]1CCCCO[C@H](CN(C)S(C)(=O)=O)[C@H](C)CN([C@@H](C)CO)C(=O)c2cc(NC(=O)NC3CCCCC3)ccc2O1` reads 1.14 ± 0.17.

On to `CN(C)C(=O)c1ccc(-c2ccc([C@@H]3[C@H]4CNC[C@@H]3N4CC3CCCCC3)cc2)cc1`, for which the viability index was 1.067 ± 0.0056. `CN1CCN(C(=O)C[C@@H]2CC[C@H]3[C@@H](COC[C@H](O)CN3C(=O)Nc3ccc4c(c3)OCO4)O2)CC1`: the viability index is 1 ± 0.082. With `O=C(Nc1cc(F)ccc1F)N[C@H]1CC[C@H](CC(=O)N2CCc3ccccc3C2)O[C@@H]1CO`, the viability index amounted to 1.07 ± 0.075. To `COc1ccc2c3c([C@H](CO)N(C)C[C@]33CCN(CC3)C(=O)c3cccnc3)n(C)c2c1` belongs 0.969 ± 0.11.

Take `CO[C@@H]1CN(C)C(=O)c2cc(NC(=O)Nc3ccccc3F)ccc2OC[C@@H](C)N(CCC(F)(F)F)C[C@H]1C`: the viability index stood at 1.058 ± 0.0095.

`C/C=C/c1ccc([C@H]2[C@H]3CNC[C@@H]2N3S(=O)(=O)c2ccccc2C)cc1` returned a viability index of 1.04 ± 0.027. The result for `C[C@H](CO)N1C[C@H](C)[C@H](CN(C)C(=O)Nc2cccc3ccccc23)Oc2ncccc2C1=O` reads 0.826 ± 0.021; that for `C/C=C/c1ccc([C@H]2[C@H]3CNC[C@@H]2N3Cc2cc(F)ccc2F)cc1`, 1.071 ± 0.0029. To `C[C@H]1CN([C@@H](C)CO)C(=O)Cc2cc(NC(=O)Cn3cnnn3)ccc2O[C@H]1CN(C)S(=O)(=O)c1ccc(Cl)cc1` belongs 1.04 ± 0.051; to `COc1ccccc1-c1ccc2c(c1)[C@H]1[C@H](CCN1Cc1ccccc1F)[C@@H](CO)N2`, 1.02 ± 0.035; to `O=C(c1ccccn1)N1C[C@@H]2[C@H](c3ccccc31)[C@H](CO)N2C(=O)C1CCCCC1`, 1.05 ± 0.047. To `CN1[C@@H]2CN(C(=O)Nc3cc(F)ccc3F)c3ccccc3[C@@H]2[C@@H]1CO` belongs 1.019 ± 0.0066.

The molecule `CO[C@H]1CN(C)C(=O)c2cc(NC(=O)Nc3c(C)noc3C)ccc2OC[C@@H](C)NC[C@H]1C` showed a viability index of 1 ± 0.058. Regarding `CN1c2ccc(-c3ccc(F)cc3)cc2[C@@H]2[C@@H](CCN2C(=O)Cc2cccnc2)[C@H]1CO`, the viability index worked out at 0.985 ± 0.07.

In the case of `COc1ccc(S(=O)(=O)Nc2ccc3c(c2)CC(=O)N([C@@H](C)CO)C[C@@H](C)[C@@H](CN(C)Cc2ccc(C(=O)Nc4ccccc4N)cc2)O3)cc1`, the viability index was 0.844 ± 0.012.
